# In the supplement of paper PMC8728848:
# Some of the results follow.
# Key:
# Test in all cases: glycan array binding signal (z-score within array); higher = stronger binding
# Conditions in all cases: glycan notation: IUPAC condensed, linker removed
# [1] = target: GlcA3S(b1-3)Gal(b1-4)GlcNAc(b1-3)Gal(b1-4)GlcNAc(b1-3)Gal(b1-4)Glc
# Method in brief: (§1)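 Arrays were curated from the Consortium for Functional Glycomics database, 3228 in total, and kept only where the protein sequence was available. Binding is expressed as a within-array Z-score. This score was averaged across arrays of the same protein sequence at different concentrations or buffers and across linkers, and negative values can be read as non-binding.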
# GlcNAc(a1-4)Gal = target: GlcNAc(a1-4)Gal
# Method in brief: as §1
# [2] = target: GlcNAc(a1-4)Gal(b1-3)[Fuc(a1-2)]Gal
# Method in brief: as §1
# [3] = target: GlcNAc(b1-2)Man(a1-3)[GlcNAc(b1-2)Man(a1-6)]Man(b1-4)GlcNAc(b1-4)GlcNAc
# Method in brief: as §1
# [4] = target: GlcNAc(b1-2)Man(a1-3)[GlcNAc(b1-2)Man(a1-6)]Man(b1-4)GlcNAc(b1-4)[Fuc(a1-6)]GlcNAc
# Method in brief: as §1
# [5] = target: GlcNAc(b1-2)Man(a1-3)[GlcNAc(b1-2)Man(a1-6)][GlcNAc(b1-4)]Man(b1-4)GlcNAc(b1-4)GlcNAc
# Method in brief: as §1
# [6] = target: GlcNAc(b1-2)Man(a1-3)[Man(a1-3)[Man(a1-6)]Man(a1-6)][GlcNAc(b1-4)]Man(b1-4)GlcNAc(b1-4)GlcNAc
# Method in brief: as §1
# [7] = target: GlcNAc(b1-2)[GlcNAc(b1-4)]Man(a1-3)[GlcNAc(b1-2)Man(a1-6)][GlcNAc(b1-4)]Man(b1-4)GlcNAc(b1-4)GlcNAc
# Method in brief: as §1
# [8] = target: GlcNAc(b1-2)[GlcNAc(b1-4)]Man(a1-3)[GlcNAc(b1-2)[GlcNAc(b1-4)][GlcNAc(b1-6)]Man(a1-6)][GlcNAc(b1-4)]Man(b1-4)GlcNAc(b1-4)GlcNAc
# Method in brief: as §1
# [9] = target: GlcNAc(b1-2)[GlcNAc(b1-4)]Man(a1-3)[GlcNAc(b1-2)[GlcNAc(b1-6)]Man(a1-6)]Man(b1-4)GlcNAc(b1-4)GlcNAc
# Method in brief: as §1
# GlcNAc(b1-3)Fuc = target: GlcNAc(b1-3)Fuc
# Method in brief: as §1
# GlcNAc(b1-3)Gal(b1-4)Glc = target: GlcNAc(b1-3)Gal(b1-4)Glc
# Method in brief: as §1
# [10] = target: GlcNAc(b1-3)[GlcNAc(b1-6)]Gal(b1-4)GlcNAc(b1-3)[GlcNAc(b1-6)]Gal(b1-4)GlcNAc(b1-3)Gal(b1-4)Glc
# Method in brief: as §1
# GlcNAc(b1-4)GlcNAc = target: GlcNAc(b1-4)GlcNAc
# Method in brief: as §1
# [11] = target: GlcNAc(b1-4)GlcNAc(b1-4)GlcNAc
# Method in brief: as §1
# [12] = target: HexA(a1-3)GalNAc4S(b1-4)GlcA(b1-3)GalNAc4S
# Method in brief: as §1
# [13] = target: HexA(a1-3)GalNAc4S(b1-4)GlcA(b1-3)GalNAc4S(b1-4)GlcA(b1-3)GalNAc4S(b1-4)GlcA(b1-3)GalNAc4S(b1-4)GlcA(b1-3)GalNAc4S(b1-4)GlcA(b1-3)GalNAc4S(b1-4)GlcA(b1-3)GalNAc4S
# Method in brief: as §1
# [14] = target: HexA(a1-3)GalNAc4S(b1-4)IdoA(a1-3)GalNAc4S
# Method in brief: as §1
# [15] = target: HexA(a1-3)GalNAc4S(b1-4)IdoA(a1-3)GalNAc4S(b1-4)IdoA(a1-3)GalNAc4S(b1-4)IdoA(a1-3)GalNAc4S(b1-4)IdoA(a1-3)GalNAc4S(b1-4)IdoA(a1-3)GalNAc4S(b1-4)IdoA(a1-3)GalNAc4S
# Method in brief: as §1
# [16] = target: HexA(a1-3)GalNAc6S(b1-4)GlcA(b1-3)GalNAc6S
# Method in brief: as §1
# [17] = target: HexA(a1-3)GalNAc6S(b1-4)GlcA(b1-3)GalNAc6S(b1-4)GlcA(b1-3)GalNAc6S(b1-4)GlcA(b1-3)GalNAc6S(b1-4)GlcA(b1-3)GalNAc6S(b1-4)GlcA(b1-3)GalNAc6S(b1-4)GlcA(b1-3)GalNAc6S
# Method in brief: as §1
# [18] = target: HexA(a1-4)GlcNAc(a1-4)HexA(a1-4)GlcNAc(a1-4)HexA(a1-4)GlcNAc(a1-4)HexA(a1-4)Man
# Method in brief: as §1
# HexA2S(a1-4)GlcNS6S = target: HexA2S(a1-4)GlcNS6S
# Method in brief: as §1
# [19] = target: Kdn(a2-3)[GalNAc(b1-4)]Gal(b1-3)GlcNAc
# Method in brief: as §1
# Man(a1-2)Man = target: Man(a1-2)Man
# Method in brief: as §1
# [20] = target: Man(a1-2)Man(a1-2)Man(a1-3)[Man(a1-2)Man(a1-3)[Man(a1-2)Man(a1-6)]Man(a1-6)]Man(b1-4)GlcNAc(b1-4)GlcNAc
# Method in brief: as §1
# [21] = target: Man(a1-2)Man(a1-2)Man(a1-3)[Man(a1-2)Man(a1-6)[Man(a1-3)]Man(a1-6)]Man(b1-4)GlcNAc(b1-4)GlcNAc
# Method in brief: as §1
# [22] = target: Man(a1-2)Man(a1-2)Man(a1-3)[Man(a1-3)[Man(a1-6)]Man(a1-6)]Man(b1-4)GlcNAc(b1-4)GlcNAc
# Method in brief: as §1
# [23] = target: Man(a1-2)Man(a1-3)[Man(a1-2)Man(a1-6)[Man(a1-3)]Man(a1-6)]Man(b1-4)GlcNAc(b1-4)GlcNAc
# Method in brief: as §1
# [24] = target: Man(a1-2)Man(a1-3)[Man(a1-3)[Man(a1-6)]Man(a1-6)]Man(b1-4)GlcNAc(b1-4)GlcNAc
# Method in brief: as §1
# Man(a1-3)Man = target: Man(a1-3)Man
# Method in brief: as §1
# [25] = target: Man(a1-3)Man(a1-6)[Man(a1-3)]Man(b1-4)GlcNAc(b1-4)GlcNAc
# Method in brief: as §1
# Man(a1-3)Man(b1-4)GlcNAc = target: Man(a1-3)Man(b1-4)GlcNAc
# Method in brief: as §1
# Man(a1-3)[Man(a1-6)]Man = target: Man(a1-3)[Man(a1-6)]Man
# Method in brief: as §1
# [26] = target: Man(a1-3)[Man(a1-6)]Man(a1-6)Man(b1-4)GlcNAc(b1-4)GlcNAc
# Method in brief: as §1
# [27] = target: Man(a1-3)[Man(a1-6)]Man(a1-6)[Man(a1-3)]Man
# Method in brief: as §1
# [28] = target: Man(a1-3)[Man(a1-6)]Man(a1-6)[Man(a1-3)]Man(b1-4)GlcNAc(b1-4)GlcNAc
# Method in brief: as §1
# [29] = target: Man(a1-3)[Man(a1-6)]Man(b1-4)GlcNAc(b1-4)GlcNAc
# Method in brief: as §1
binder,measurement,setting,value
"CLECSF8 (Mus musculus), Q9Z2H6 (protein) HYFLRWTRGSVVKLSDYHTRVTCIREEPQPGATGGTWTCCPVSWRAFQSNCYFPLNDNQTWHESERNCSGMSSHLVTINTEAEQNFVTQLLDKRFSYFLGLADENVEGQWQWVDKTPFNPHTVFWEKGESNDFMEEDCVVLVHVHEKWVWNDFPCHFEVRRICKLPGITFNWKPSK",glycan array binding signal (z-score),[1],0.142
same,glycan array binding signal (z-score),GlcNAc(a1-4)Gal,-0.424
same,glycan array binding signal (z-score),[2],-0.424
same,glycan array binding signal (z-score),[3],-0.424
same,glycan array binding signal (z-score),[4],-0.424
same,glycan array binding signal (z-score),[5],-0.424
same,glycan array binding signal (z-score),[6],-0.424
same,glycan array binding signal (z-score),[7],-0.424
same,glycan array binding signal (z-score),[8],-0.424
same,glycan array binding signal (z-score),[9],-0.424
same,glycan array binding signal (z-score),GlcNAc(b1-3)Fuc,-0.424
same,glycan array binding signal (z-score),GlcNAc(b1-3)Gal(b1-4)Glc,1.74
same,glycan array binding signal (z-score),[10],-0.424
same,glycan array binding signal (z-score),GlcNAc(b1-4)GlcNAc,1.76
same,glycan array binding signal (z-score),[11],1.74
same,glycan array binding signal (z-score),[12],0.302
same,glycan array binding signal (z-score),[13],0.056
same,glycan array binding signal (z-score),[14],-0.393
same,glycan array binding signal (z-score),[15],0.136
same,glycan array binding signal (z-score),[16],0.041
same,glycan array binding signal (z-score),[17],0.809
same,glycan array binding signal (z-score),[18],0.453
same,glycan array binding signal (z-score),HexA2S(a1-4)GlcNS6S,-0.424
same,glycan array binding signal (z-score),[19],-0.424
same,glycan array binding signal (z-score),Man(a1-2)Man,1
same,glycan array binding signal (z-score),[20],-0.424
same,glycan array binding signal (z-score),[21],-0.424
same,glycan array binding signal (z-score),[22],-0.424
same,glycan array binding signal (z-score),[23],-0.424
same,glycan array binding signal (z-score),[24],-0.424
same,glycan array binding signal (z-score),Man(a1-3)Man,0.873
same,glycan array binding signal (z-score),[25],-0.424
same,glycan array binding signal (z-score),Man(a1-3)Man(b1-4)GlcNAc,3.04
same,glycan array binding signal (z-score),Man(a1-3)[Man(a1-6)]Man,1.89
same,glycan array binding signal (z-score),[26],-0.424
same,glycan array binding signal (z-score),[27],4.16
same,glycan array binding signal (z-score),[28],-0.424
same,glycan array binding signal (z-score),[29],-0.424
